This is one part of the list. The list includes weakly bound sequences.
Each sequence was assayed against T1, MBP-FoxP3dN (UniProt Q99JB6) (assay: PD-seq (MBP pull-down with sequencing)). Details: 20 mM Tris-HCl pH 7.5, 100 mM NaCl, 1.5 mM MgCl2, 0.4 uM protein, 0.1 uM dsDNA library, 30 min, room temperature, amylose pull-down; high values mean tight binding; double strand, one strand shown.
T1 sequence: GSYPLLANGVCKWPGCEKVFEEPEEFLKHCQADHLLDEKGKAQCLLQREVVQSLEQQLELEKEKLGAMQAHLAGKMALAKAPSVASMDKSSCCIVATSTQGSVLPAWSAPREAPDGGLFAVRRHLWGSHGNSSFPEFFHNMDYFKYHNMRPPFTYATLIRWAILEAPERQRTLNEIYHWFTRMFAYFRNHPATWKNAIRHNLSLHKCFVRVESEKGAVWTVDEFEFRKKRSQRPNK
“GATGATTGTTCTCCCAGCTGATGAATTGAAAATCTCGAGTAAACAAATTTTCCTAATCTTTCTGTTCAAGCGCCATCTAC” gave a binding signal (RPM ratio (pull-down/input)) of 0.216.
“GATGATTGTTCTCCCAGCTGATGAATTTCTGCCTTCGAGTAAACAAATTTTCCTAATCTTTCTGTTCAAGCGCCATCTAC” showed a binding signal (RPM ratio (pull-down/input)) of 2.33.
Sequence “GATGATTGTTCTCCCAGCTGATGAATTAGTGTGTTCGAGTAAACAAATTTTCCTAATCTTTCTGTTCAAGCGCCATCTAC” has a binding signal (RPM ratio (pull-down/input)) of 3.52.
Work on “GATGATTGTTCTCCCAGCTGATGAATTGCAGTTCTCGAGTAAACAAATTTTCCTAATCTTTCTGTTCAAGCGCCATCTAC” yielded a binding signal (RPM ratio (pull-down/input)) of 1.13.
With “GATGATTGTTCTCCCAGCTGATGAATTCTAGGGATCGAGTAAACAAATTTTCCTAATCTTTCTGTTCAAGCGCCATCTAC” the binding signal (RPM ratio (pull-down/input)) was 0.272.
With “GATGATTGTTCTCCCAGCTGATGAATTGTTGGTTTCGAGTAAACAAATTTTCCTAATCTTTCTGTTCAAGCGCCATCTAC” the binding signal (RPM ratio (pull-down/input)) was 5.31.
In the case of “GATGATTGTTCTCCCAGCTGATGAATTATGCCGATCGAGTAAACAAATTTTCCTAATCTTTCTGTTCAAGCGCCATCTAC”, the binding signal (RPM ratio (pull-down/input)) is reported as 1.1.
For “GATGATTGTTCTCCCAGCTGATGAATTTTAAAACTCGAGTAAACAAATTTTCCTAATCTTTCTGTTCAAGCGCCATCTAC”, the binding signal (RPM ratio (pull-down/input)) was 0.218.
In the case of “GATGATTGTTCTCCCAGCTGATGAATTCTTTTCGTCGAGTAAACAAATTTTCCTAATCTTTCTGTTCAAGCGCCATCTAC”, the binding signal (RPM ratio (pull-down/input)) is reported as 0.311.
“GATGATTGTTCTCCCAGCTGATGAATTCCAAGTTTCGAGTAAACAAATTTTCCTAATCTTTCTGTTCAAGCGCCATCTAC” gave a binding signal (RPM ratio (pull-down/input)) of 0.322.
With “GATGATTGTTCTCCCAGCTGATGAATTGTCTGTCTCGAGTAAACAAATTTTCCTAATCTTTCTGTTCAAGCGCCATCTAC” the binding signal (RPM ratio (pull-down/input)) was 0.422.
“GATGATTGTTCTCCCAGCTGATGAATTGGCCACGTCGAGTAAACAAATTTTCCTAATCTTTCTGTTCAAGCGCCATCTAC” was tested, and the binding signal (RPM ratio (pull-down/input)) was 0.526.
“GATGATTGTTCTCCCAGCTGATGAATTGCTTCCATCGAGTAAACAAATTTTCCTAATCTTTCTGTTCAAGCGCCATCTAC” showed a binding signal (RPM ratio (pull-down/input)) of 0.59.
Sequence “GATGATTGTTCTCCCAGCTGATGAATTGAGGTTGTCGAGTAAACAAATTTTCCTAATCTTTCTGTTCAAGCGCCATCTAC” has a binding signal (RPM ratio (pull-down/input)) of 0.8.
Sequence “GATGATTGTTCTCCCAGCTGATGAATTCGTTAGGTCGAGTAAACAAATTTTCCTAATCTTTCTGTTCAAGCGCCATCTAC” has a binding signal (RPM ratio (pull-down/input)) of 0.853.
Work on “GATGATTGTTCTCCCAGCTGATGAATTTGTTTGTTCGAGTAAACAAATTTTCCTAATCTTTCTGTTCAAGCGCCATCTAC” yielded a binding signal (RPM ratio (pull-down/input)) of 7.56.
“GATGATTGTTCTCCCAGCTGATGAATTGGAGTCATCGAGTAAACAAATTTTCCTAATCTTTCTGTTCAAGCGCCATCTAC” was tested, and the binding signal (RPM ratio (pull-down/input)) was 0.47.
With “GATGATTGTTCTCCCAGCTGATGAATTCGCCTAGTCGAGTAAACAAATTTTCCTAATCTTTCTGTTCAAGCGCCATCTAC” the binding signal (RPM ratio (pull-down/input)) was 0.345.
With “GATGATTGTTCTCCCAGCTGATGAATTTTCGTTATCGAGTAAACAAATTTTCCTAATCTTTCTGTTCAAGCGCCATCTAC” the binding signal (RPM ratio (pull-down/input)) was 0.607.
In the case of “GATGATTGTTCTCCCAGCTGATGAATTCCGACTATCGAGTAAACAAATTTTCCTAATCTTTCTGTTCAAGCGCCATCTAC”, the binding signal (RPM ratio (pull-down/input)) is reported as 0.64.
“GATGATTGTTCTCCCAGCTGATGAATTCGCGTAGTCGAGTAAACAAATTTTCCTAATCTTTCTGTTCAAGCGCCATCTAC” showed a binding signal (RPM ratio (pull-down/input)) of 0.558.
Sequence “GATGATTGTTCTCCCAGCTGATGAATTTCGACAGTCGAGTAAACAAATTTTCCTAATCTTTCTGTTCAAGCGCCATCTAC” has a binding signal (RPM ratio (pull-down/input)) of 0.471.
For “GATGATTGTTCTCCCAGCTGATGAATTTAAGCGATCGAGTAAACAAATTTTCCTAATCTTTCTGTTCAAGCGCCATCTAC”, the binding signal (RPM ratio (pull-down/input)) was 0.503.
“GATGATTGTTCTCCCAGCTGATGAATTATTTTGATCGAGTAAACAAATTTTCCTAATCTTTCTGTTCAAGCGCCATCTAC” gave a binding signal (RPM ratio (pull-down/input)) of 1.11.
“GATGATTGTTCTCCCAGCTGATGAATTGGGGACATCGAGTAAACAAATTTTCCTAATCTTTCTGTTCAAGCGCCATCTAC” was tested, and the binding signal (RPM ratio (pull-down/input)) was 0.475.
“GATGATTGTTCTCCCAGCTGATGAATTTCTGATTTCGAGTAAACAAATTTTCCTAATCTTTCTGTTCAAGCGCCATCTAC” was tested, and the binding signal (RPM ratio (pull-down/input)) was 0.41.
Work on “GATGATTGTTCTCCCAGCTGATGAATTTTTTTTTTCGAGTAAACAAATTTTCCTAATCTTTCTGTTCAAGCGCCATCTAC” yielded a binding signal (RPM ratio (pull-down/input)) of 0.217.
Sequence “GATGATTGTTCTCCCAGCTGATGAATTGGATCGCTCGAGTAAACAAATTTTCCTAATCTTTCTGTTCAAGCGCCATCTAC” has a binding signal (RPM ratio (pull-down/input)) of 0.278.
“GATGATTGTTCTCCCAGCTGATGAATTAGACCTATCGAGTAAACAAATTTTCCTAATCTTTCTGTTCAAGCGCCATCTAC” showed a binding signal (RPM ratio (pull-down/input)) of 0.42.
Work on “GATGATTGTTCTCCCAGCTGATGAATTGATATCGTCGAGTAAACAAATTTTCCTAATCTTTCTGTTCAAGCGCCATCTAC” yielded a binding signal (RPM ratio (pull-down/input)) of 0.869.
Work on “GATGATTGTTCTCCCAGCTGATGAATTGCTGTAATCGAGTAAACAAATTTTCCTAATCTTTCTGTTCAAGCGCCATCTAC” yielded a binding signal (RPM ratio (pull-down/input)) of 0.909.
Work on “GATGATTGTTCTCCCAGCTGATGAATTTACTGGCTCGAGTAAACAAATTTTCCTAATCTTTCTGTTCAAGCGCCATCTAC” yielded a binding signal (RPM ratio (pull-down/input)) of 0.472.

Reference: paper PMC12820563
